Hit rate of the full screen: of about 4,800 compounds, about 410 (8.5%) showed an effect of 50% or more. The list shows a part of the results.
Test system: Plasmodium falciparum
Test: Confirmatory screen in NF54 pLDH assay, in single point, at 2uM, 72h
Assay type: functional, Erythrocyte
Settings: timepoint 72 hour

SMILES | % Inhibition [%]
O=C(Cn1c(=O)n(-c2cc(F)cc(F)c2)c(=O)c2sccc21)NCc1ccc2c(c1)OCO2 | -6
N#Cc1cccc(-c2c[nH]c(CNc3nc4cc(C(F)(F)F)ccc4s3)n2)c1 | 7
Oc1cc(CC[C@H]2CCCCN2)cc(-c2cnc3ccccc3n2)c1 | 80
C[C@H]1CCN(c2ncc(Cl)cc2Cl)CCS1(=O)=O | -11
Cc1ccccc1CNC1C(=O)NCCC1C (stereo not drawn) | -2
CCC1C(=O)CC(c2ccco2)NC1c1ccco1 (stereo not drawn) | 13
Cc1ccc(NC(=O)Nc2cc(C)ccc2N2CCCN(Cc3ccc(F)cc3)C2=O)cc1 | 30
O=S(=O)(Cc1ccccc1)N1CCN(C2CCCCCC2)CC1 | 1
c1cc(-c2cn3c(COc4ccc5c(c4)OCO5)nnc3s2)ccn1 | 15
CCN1CCC2CCC(C1)N2C(=O)Nc1ccc(OC2CCC2)c(F)c1 (stereo not drawn) | -18
C[C@@H](N)C(=O)N1CCc2cc(-c3ccccc3)ccc21 | 11
CC1CN(CC(=O)NCCC#N)C(C)CO1 (stereo not drawn) | 1
CS(=O)(=O)N1C[C@@H]2CCCN2c2cc(C(F)(F)F)ccc21 | 14
Nc1ncc(C(=O)N2CCC3(CCCCCC3)C2)s1 | 98
Cc1cc(N2CCC(O)CC2)nc(N2CCC(O)CC2)c1C#N | 2
Cc1noc(-c2cc(=O)[nH]c3ccccc23)n1 | 13
COc1ccc(CC(=O)N(c2ccccc2)c2ccccc2)cc1 | 5
Cc1nnc(NC(c2cnc3ccccc3c2)[C@H]2C[C@@H](O)C2)s1 (stereo partly drawn) | 12
COc1ccccc1[C@@H]1CC(c2cccn2C)=NN1C(=O)CN(CCN1CCOCC1)C(C)=O | 7
O=C(Nc1ccc(N2CCC(Cc3ccccc3)CC2)cc1C(=O)O)c1ccccc1F | -14
Cc1nnc2ccc(S(=O)(=O)N(Cc3ccc(F)cc3)c3cccc(Cl)c3)cn12 | 14
Cc1ccc(Cl)cc1N1CCN(C(=O)c2ccc3noc(-c4ccc(F)cc4)c3c2)CC1 | -13
CN(C)c1ccc(CNC2CCCCCC2)cc1 | -13

SMILES | % Inhibition [%]
COc1cccc(NC(=O)N2CC(O)CC2C2CCCCC2)c1 (stereo not drawn) | -3
COc1ccc(CCc2nc(NC(=O)c3nc(C)sc3C)n[nH]2)cc1OC | -14
CCOC(=O)c1sc(NC)nc1C(F)(F)F | -14
COc1ccc(C(=O)N(CCO)CCN2CCOCC2)c(OC2CCCC2)c1 | 11
Cc1nn(C)c(=O)n1-c1ccc(Oc2ccccc2)cc1 | -5
COCC(=O)N[C@H]1CC[C@H](CO)CC1 | 2
O=C(Cc1ccc(C(=O)Nc2nc(-c3ccccc3)cs2)cc1)c1ccccc1 | 12
CCCN1CC(=O)N(c2ccc(C)cc2)[C@@H]2CS(=O)(=O)C[C@@H]21 | 9
Cc1nc2cc(NC(=O)[C@@]3(C)CCCN(C(=O)c4ccccc4)C3)ccc2o1 | 3
O=C(NC(c1ccccc1)c1ccccc1)C1=COCCO1 | -14
CC1CCC2C(C1)c1c(nc(O)n(-c3ccccc3)c1=O)OC2(C)C (stereo not drawn) | 13
Cc1nn(C)c(Oc2cccc(F)c2)c1NC(=O)CC(C)C | 2
CC(C)Oc1nccnc1NC[C@](C)(O)c1cccc(Cl)c1 | -6
Cc1cc(N)n(-c2nc(-c3ccccc3)cc(=O)[nH]2)n1 | -1
O=S(=O)(Nc1ccc2nncn2c1)c1c(F)cccc1Cl | -18
Cc1cnc(C2CCN(C(=O)[C@@H]3CNC(=O)O3)CC2)s1 | 2
CCCN(CC(=O)O)S(=O)(=O)c1cccc(C)c1Br | -23
Cc1c(F)cccc1NC(=O)N1CCN(C2=CC3=N[C@@H](C)CN3C=N2)CC1 | 54
COc1ccc(CCc2nnc(NC(=O)Cc3c(C)noc3C)[nH]2)cc1OC | 1
O=S1(=O)NC(c2ccccc2)(c2ccccc2)c2ccccc21 | -5
Cc1c(Cl)cccc1S(=O)(=O)N1CCN(c2cccnc2)C(=O)C1 | 7
COC(C)[C@H](C)NCC(C)c1ccccc1 (stereo partly drawn) | -6
CC(C)c1ccc(-c2nc(CN3CCCCC3)cc(CN3CCCCC3)c2O)cc1 | 95

SMILES | % Inhibition [%]
COCc1cc(=O)n(CC(=O)Nc2cccc(C)c2C)c(N2CCOCC2)n1 | 13
COc1ccc(CNCc2ccc(C)cc2)cc1Cn1ccnc1 | 69
CC(=O)Nc1ccccc1CC(c1c[nH]c2ccccc12)c1c[nH]c2ccccc12 | 0
CCN(C(=O)Cn1cc(-c2ccccc2)c2ncn(CC)c(=O)c21)c1ccccc1 | -5
CCN(C)[C@H]1CCN(c2cc(C(F)(F)F)ccn2)C1 | -17
CC(=O)Nc1cc2c(cc1NC(C)=O)N(C(C)=O)CC2 | -7
Cc1nc(C2CC2)nc(N2CCN(C(=O)N(C)C)CC2)c1Cc1ccccc1F | -5
CC[C@@](C)(CCO)NCc1nccn1C | 9
Cc1cc(C)cc(CN2CCCN(c3ccc(C)cc3NC(=O)Cc3ccc(F)cc3)C2=O)c1 | 13
COC(=O)CNCc1ccccc1Cl | 0
O=C(N[C@H]1CCN(CC2CCCC2)C1)c1nccc2cccnc12 | -9
CCOCC(=O)Nc1ccc(OC(F)(F)F)cc1 | -14
Cc1nc(C(=O)NC[C@H]2CN(c3nncs3)CCO2)c(C)s1 | -14
CC(C)(C)c1cc([C@H](c2ccc(Cl)cc2)N2CCCCC2)cc(C(C)(C)C)c1O | 7
CC(C)n1cc(S(=O)(=O)Nc2cc(F)ccc2Cl)c2cccnc21 | 1
O=c1[nH]c2ccsc2c(=O)n1CCc1ccccc1 | -11
NCc1ccc(O)c(Br)c1 | 6
O=C(CCc1nc(CN2CCN(S(=O)(=O)c3ccc(F)cc3)CC2)no1)N1CCCC1 | -4
CCc1onc(C)c1NCc1cnc(C(C)(C)C)s1 | -4
Cc1ccc(NC(=O)c2c(Cl)cccc2Cl)c2c1CC(C)(C)O2 | -21
CN(C(=O)C1CC=CC1)c1ccc(NC(=O)C2CC=CC2)cc1Cl | -13
COCCCN(Cc1c(C)nn(-c2cccc(F)c2)c1N1CCN(C)CC1)S(=O)(=O)c1ccc2ccccc2c1 | 8

Reference: ChEMBL document CHEMBL4888484, “Replenishing the malaria drug discovery pipeline: Screening and hit evaluation of the MMV Hit Generation Library 1 (HGL1) against asexual blood stage Plasmodium falciparum ,using a nano luciferase reporter read-out” (2022)
